Results as given in the RNAGym collection of RNA variant scans (doi:10.7554/elife.90254).
Read counts are not given, so values of variants with three or more changes are uncertain.

B1: LINE1-full (parent)
chain: UACGUAGGUGGUUUUCCCCUGAUAGUGCUAAGGGGGCCUGGAAGUUUGGACUGGGCAGAGCUCAACACAGCGUGGCAAAGUGGCUGUGGCUAGACUGCCUCUCUGGAUUCCUCGUCACUCAGCAGGGCAUCUCUGAGAGAAAUGCC

Variants of: B1
Experiment: self-cleavage, relative activity (ratio to wild type); higher = more cleavage; in vitro, sequencing; the parent is a self-cleaving ribozyme

| Variant | self-cleavage |
| --- | --- |
| A50G U85C U143A | 0 |
| A50G U87A A140G | 0.03 |
| A50G U87A A142G | 0 |
| A50G U87C U102C | 0 |
| A50G U87C U134C U143C | 0.42 |
| A50G U96C U112A | 0 |
| A50G U96C U130C | 0 |
| A50G U100C U134A A141G | 1.99 |
| A50G U102C U132A | 0.5 |
| A50G U108C C123U | 0.85 |
| A50G U109C G114A A136G A138G | 0.61 |
| A50G U112C U115C A129U U143A | 0 |
| A50G U115C A117C U143C | 1.67 |
| A50G U115C A121U | 0.79 |
| A50G U115C U132C | 0 |
| A50G U130C U134G | 2.63 |
| A50G U134G A140G | 0.97 |
| A50U A57G U85A A141C | 0 |
| A50U A57U A64G | 0.11 |
| A50U A64G U81C | 0.22 |
| A50U A65G A124U | 0.03 |
| A50U A67G U91C A124U | 0 |
| A50U A69G A92U A142G | 0.22 |
| A50U A77G A140G | 1.07 |

| Variant | self-cleavage |
| --- | --- |
| A50U G75U U112C U134C U143C | 0.36 |
| A50U G106A A142G | 1.35 |
| A50U U52A A65G A141G U143C | 0.07 |
| A50U U52A U73A A77G | 2.12 |
| A50U U52A U81C | 0.73 |
| A50U U52A U112C | 1.27 |
| A50U U52C C56A A141G | 0.04 |
| A50U U52C U143A | 0.73 |
| A50U U62A A94G | 0 |
| A50U U62G U132A | 0.09 |
| A50U U73A A140C | 0.98 |
| A50U U73A C103U | 1.32 |
| A50U U73C U108C | 1.28 |
| A50U U81A U87A | 0.06 |
| A50U U85A U100A | 0.04 |
| A50U U87A U102C | 0.07 |
| A50U U108G U115C | 1.62 |
| C51A A59U A117U | 0.48 |
| C51A A92G A141G | 0.06 |
| C51A C71U A124G | 0.48 |
| C51A C84G A94G U100C | 0.11 |
| C51A U87A U134A | 0.02 |
| C51A U112C C113U | 0.63 |
| C51G U85A U102C A141G | 0.09 |

| Variant | self-cleavage |
| --- | --- |
| C51U A77G G135U A142G | 1.39 |
| C51U G55A U115C U132C | 0.29 |
| C51U G83A U91C | 0.21 |
| C51U U52C A78U U81C U96A U132C | 0.04 |
| C51U U112C A129G | 1.72 |
| C51U U119C A141G | 2.35 |
| U52A A57G A64G U115A A138G | 0.82 |
| U52A A57G A124U U132C | 0.69 |
| U52A A57U A67G U102C | 0.09 |
| U52A A57U U109C | 0.03 |
| U52A A59G A107G U108C | 0 |
| U52A A59G A124G U134A | 0 |
| U52A A59U A140G | 0.31 |
| U52A A59U U87C U112G | 0.24 |
| U52A A65U G72C U109A A138G | 0.19 |
| U52A A69G A138U | 0.4 |
| U52A A77G U119C | 2.42 |
| U52A A78G A121C | 1.15 |
| U52A A92U A129C | 0.46 |
| U52A A107G A141G | 1.44 |
| U52A A107G U130C | 1.22 |
| U52A A117G A138G | 1.93 |
| U52A C56U A65G | 0.2 |
| U52A C76U A136U | 1.81 |

| Variant | self-cleavage |
| --- | --- |
| U52A G55U C95U | 0.03 |
| U52A G60A U115G A136U A140G | 0.04 |
| U52A U62C A92U A117G A140U | 0 |
| U52A U62C U102A U132C | 0 |
| U52A U62C U130C | 0.12 |
| U52A U81A U87C A124G | 0.72 |
| U52A U81C U143C | 0.93 |
| U52A U85A U109A C111U | 0.1 |
| U52A U85G A94U A124U U132C A138G A141G | 0 |
| U52A U87A A142G G144U | 0.2 |
| U52A U87C A124U | 0.45 |
| U52A U96C A124G | 0.12 |
| U52A U100A A124U | 0.99 |
| U52A U102C A117U | 1.31 |
| U52A U102C A136U | 1.18 |
| U52A U112C A117U | 1.43 |
| U52A U112G A138G | 2.3 |
| U52A U119C A140G | 1.82 |
| U52C A57U A64G U91A | 0.19 |
| U52C A57U U119C A136G A141G | 0.45 |
| U52C A59G A64C A129U | 0 |
| U52C A64G A142G | 0.07 |
| U52C A64U G83A | 0.12 |
| U52C A64U U81A U85C U100C U134C | 0.54 |

| Variant | self-cleavage |
| --- | --- |
| U52C A64U U91A C116U | 0.12 |
| U52C A65C C113A | 0 |
| U52C A65G U73A G122A U143C | 0 |
| U52C A67G G114U A117U | 0.52 |
| U52C A77G A140U | 2.99 |
| U52C A79G U85A U91C G125U | 0 |
| U52C A94G U102C | 0 |
| U52C A107U C123A A129G A136G A142G | 0.95 |
| U52C A124U U130A | 0.93 |
| U52C C66A A67G | 0.13 |
| U52C C71U U134C | 0.79 |
| U52C C84U U132A | 0 |
| U52C C90U U115A U132C | 0.03 |
| U52C C98U C101U A136G | 0.81 |
| U52C C113A A140G | 1.37 |
| U52C C113A U132C | 0.5 |
| U52C G54A A67G A78G | 0.06 |
| U52C G72A A136G | 1.38 |
| U52C G74A U132C | 1.47 |
| U52C G75A U96A | 0.09 |
| U52C U62A U115C | 0.08 |
| U52C U62C G122A U134A | 0.08 |
| U52C U62C U119C A124G A141G C146G | 0 |
| U52C U62C U130C | 0.11 |

| Variant | self-cleavage |
| --- | --- |
| U52C U73A A117G | 2.48 |
| U52C U73C A121G C145U | 1.02 |
| U52C U73C A142G | 1.84 |
| U52C U73C U96A U109C C146A | 0.77 |
| U52C U81A A140U | 1.52 |
| U52C U87C U100A | 0 |
| U52C U96A U104A | 0.09 |
| U52C U96C U109C A142G | 0 |
| U52C U100C A124G A141G | 2.7 |
| U52C U104C A136U | 1.75 |
| U52C U108C A124G | 2.3 |
| U52C U112A U132C | 1.81 |
| U52C U112C A129G | 2.3 |
| U52C U112C U134C | 0.92 |
| U52C U119C A136U | 2.04 |
| U52C U130C U143A | 1.1 |
| U52C U134A A142G | 0.52 |
| U52G A69G U96A | 0.06 |
| U52G A69G U134C G135U | 0.77 |
| U52G A124U G126A A136G | 1.75 |
| U52G U62A U87A A142G | 0 |
| U52G U62C U134A A142G | 0 |
| G53A A57G U108C A124G | 1 |
| G53A A59G A65G U108C A124G | 0.2 |

| Variant | self-cleavage |
| --- | --- |
| G53A A59G U96C U119C | 0.09 |
| G53A A59U A117G | 0.8 |
| G53A A64G A67C U119A | 0.07 |
| G53A A64U G74U U91C U96G A107U | 0.02 |
| G53A A65U A94G | 0.06 |
| G53A A65U U87A | 0.03 |
| G53A A78G A79U U87C C123A | 0.08 |
| G53A A79G C120A U132C | 1.34 |
| G53A A79G U87C | 0.18 |
| G53A A79G U96C | 0.17 |
| G53A A140G G144A | 1.24 |
| G53A C61G U143C | 0.04 |
| G53A G75C U96A | 0.05 |
| G53A U62C A92U | 0 |
| G53A U85A U91C | 0.1 |
| G53A U96C U100C U109C A138G | 0.07 |
| G53A U112C A142G | 1.04 |
| G53C G74A A79G A94G A140G U143A | 0.07 |
| G53C U81A A136G | 2.44 |
| G53C U115A U143C | 1.76 |
| G53U A78G A124G | 0.6 |
| G53U A92G U112C | 0.11 |
| G53U U62C A67G | 0.12 |
